# In PubChem BioAssay AID1347041 (National Center for Advancing Translational Sciences (NCATS), 2019):
# Values joined by “and” are separate entries in the source; they are usually repeats but may differ in a detail not shown here. Identical values can stand only once. Hit rate of the full screen: of about 480,000 compounds, about 740 (0.15%) were called active. Inconclusive results, whose numbers are uncertain, are shown with a selection of clear calls. No stated cut-off is given here; in the data, active means activity change below about -30%; inconclusive means mostly about -25% to -30%; inactive means weaker than that.
# Biological target: L-lactate dehydrogenase A chain (Homo sapiens) (UniProt P00338)
# Experiment: qHTS assay for inhibitors of human lactate dehydrogenase;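 further: values are at about 110 or 230 µM; plate controls were DMSO wells for no effect and wells without enzyme for full effect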
# Details: purified LDHA, NADH/diaphorase-resazurin fluorescence; hits give low values
# Procedure, shortened: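 Human LDH5 (2 nM) was incubated with 0.06 mM NADH and 0.2 mM pyruvate for 5 min at room temperature in Tris pH 7.4. Remaining NADH was coupled through diaphorase/resazurin, and resorufin fluorescence was read at 0 and 20 min.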
row,Compound,activity change
1,Cc1ccc(/C=C/C(=O)NCC(C)(C)CNC(=O)/C=C/c2ccc(C)o2)o1,inconclusive: -26.1%
2,Cc1ccc(C)n1-c1cc(S(=O)(=O)N2CCOCC2)ccc1N1CCCC1,inactive: -4.35%
3,CNC(=S)NN(C)c1nc(C)cc(C)n1,inconclusive: -28.7%
4,Cc1c(NC(=O)CN2CC(C)OC(C)C2)c(=O)n(-c2ccccc2)n1C (configuration not stated),inconclusive: -26.3%
5,CCc1ccc2c(CSc3nc(N)cc(N)n3)cc(=O)oc2c1,inconclusive: -26.7%
6,Fc1ccc(-c2ccc(CNCC3CCNCC3)o2)cc1Cl,inactive: 9.66%
7,COc1ccc2c(-c3ccccc3)cc(N3CCOCC3)nc2c1,inconclusive: -27.5%
8,Cc1ccc2c(=O)cc(C(=O)NCC(c3ccco3)N3CCOCC3)oc2c1C (configuration not stated),inconclusive: -25.3%
9,CC(C)c1ccc(-c2noc(Cn3c(Cl)nc4c3c(=O)n(C)c(=O)n4C)n2)cc1,inconclusive: -28.2%
10,CC(=O)NCCc1ccccc1,inconclusive: -26.6%
11,C=CCNCCOCCOc1ccc(Cl)cc1C(C)(C)C,inconclusive: -25.3%
12,Cc1ccc(C(=O)Nc2oc3ccccc3c(=O)c2-c2ccccc2)cc1,inactive: 2.11%
13,O=C(Cn1nnc2ccccc21)c1ccccc1,inconclusive: -28.6%
14,O=C(Nc1ccc(F)c(Cl)c1)Nc1nnc([C@@H]2O[C@H](CO)[C@@H](O)[C@H]2O)s1,inconclusive: -45.8%
15,Cc1cc(=O)oc2cc(Br)ccc12,inconclusive: -26.2%
16,CC(=O)Nc1cccc(N/C(N)=N/c2nc(C)cc(C)n2)c1,inactive: -5.55%
17,CCOC(=O)c1c(N2CCN(c3ccccc3)CC2)cc(C)nc1C,inconclusive: -25.1%
18,CC(C)CNC(=O)c1cc(-c2ccc(Cl)c(Cl)c2)on1,inconclusive: -26.9%
19,CC(Sc1nc2ccccc2c(=O)n1Cc1ccco1)C(=O)c1ccccc1 (configuration not stated),inconclusive: -25.2%
20,COc1ccccc1C(=O)N1CCN(Cc2cccnc2)CC1,active: -32.6%
21,Cc1cc2nc(/C=C/c3cccc(C(F)(F)F)c3)sc2cc1C,inconclusive: -25.4%
22,CC1CCCC/C1=N\NC(=S)Nc1ccccc1C(F)(F)F (configuration not stated),inconclusive: -26.5%

row,Compound,activity change
1,CCc1ccc(-c2cc(C(F)(F)F)on2)cc1S(=O)(=O)NCc1ccccc1,inconclusive: -26.6%
2,O=C(Cc1ccccc1)NCC(=O)OCC(=O)c1ccc2ccccc2c1,inactive: -1.86%
3,CN(CC(=O)NCc1ccccc1)Cc1cccc(F)c1,inconclusive: -29.4%
4,COc1cccc(OCC(O)CN2CCN(C)CC2)c1 (configuration not stated),inconclusive: -27.4%
5,O=C(NCc1ccccc1Cl)c1ccc2nc([C@H]3C[C@H](O)[C@@H](CO)O3)[nH]c2c1,inactive: -3.64%
6,CCOc1cccc(C(=O)N(Cc2ccc(F)cc2)c2ccccn2)c1,inconclusive: -26.8%
7,CN(Cc1ccccc1)C(=O)COC(=O)c1ccc2ccccc2n1,inactive: -4.14% and inactive: -5.18%
8,O=C(O)CCC(=O)N1CCN(CCc2ccccc2)CC1,inconclusive: -29.1%
9,COc1cc(/C=C2\C(=O)ON=C2c2ccccc2)cc(Cl)c1O,inconclusive: -28.3%
10,O=S(c1cc(Cl)cc(Cl)c1O)c1cc(Cl)cc(Cl)c1O,inconclusive: -25.7%
11,Cc1nc2cc(F)cc(C(=O)NCC(C)N(C)c3ccccc3)c2nc1C (configuration not stated),inconclusive: -28.2%
12,Cc1cc(C)nc(NS(=O)(=O)c2ccc(NC(=O)Cc3ccc(F)cc3)cc2)n1,inconclusive: -25.9%
13,Cc1ccc2nc(-c3ccccc3)cc(C(=O)Nc3ccccn3)c2c1,inconclusive: -27.1%
14,O=C(Nc1ccc2c(c1)OCCO2)C(c1ccnc2ccccc12)N1CCN(C/C=C/c2ccccc2)CC1 (configuration not stated),inactive: 1.61%
15,CCOC(=O)CCNC(C)C1COc2ccccc2O1 (configuration not stated),inconclusive: -27.7%
16,Cc1ccc(CN2CCCN(c3cccc(C(=O)N4CCCCCC4)c3)C2=O)cc1,inconclusive: -25.5%
17,Cc1nc(C)c(C(=O)C2=C(O)C(=O)N(CCN3CCOCC3)C2c2ccc(C(C)(C)C)cc2)s1 (configuration not stated),inconclusive: -26.6%
18,Cc1cccc(NC(CNS(=O)(=O)c2ccc(Cl)cc2)c2ccccc2)c1 (configuration not stated),inactive: 5.34%
19,O=C(Nc1ccccc1)N1CCN(Cc2ccccc2)CC1,inconclusive: -26.4%
20,COc1ccc(S(=O)(=O)N2CCC(N3CCN(Cc4ccccc4)CC3)CC2)cc1,inconclusive: -28.1%
21,CCC(=O)Nc1nnc(-c2ccccn2)o1,inactive: 0.333%
22,CC1Cc2ccccc2N1C(=O)COC(=O)/C=C/c1ccc(F)cc1 (configuration not stated),inactive: -1.62%

row,Compound,activity change
1,CC(C)(C)c1ccc(S(=O)(=O)Nc2ccc(C(O)(C(F)(F)F)C(F)(F)F)cc2)cc1,inconclusive: -25.7%
2,CNc1ccc(/C=C(\CCC(=O)O)c2nc3ccccc3s2)cc1[N+](=O)[O-],inconclusive: -28.2%
3,CCN1/C(=C/c2ccc3ccccc3[n+]2CC)C=Cc2ccccc21,inconclusive: -38.3%
4,CCN(CC)S(=O)(=O)c1ccc(C)c(NC(=O)CN2CCN(Cc3ccccc3)CC2)c1,inconclusive: -25.2%
5,CCCCNC(=S)Nc1ccc(C)c(Cl)c1,inactive: -0.593%
6,COc1ccc(NC(=O)CNCc2ccc(Cl)cc2)cc1S(=O)(=O)N1CCOCC1,inconclusive: -29.9%
7,Cc1ccc(CN(C)C(=O)c2cccc(S(=O)(=O)N3CCc4ccccc4C3)c2)o1,inactive: -0.339%
8,CC(C)N(C)S(=O)(=O)c1ccc(Cl)c(C(=O)NCc2ccnc(N3CCCC3)c2)c1,inconclusive: -25.8%
9,O=C(CSc1ccccc1Cl)N1CCNC1=O,inconclusive: -26.6%
10,COc1cc(CN(C(=O)c2ccc3c(c2)NC(=O)CS3)C2CC2)ccc1OC(F)F,inconclusive: -26.3%
11,CCN1CCN(C(c2ccccc2Cl)c2c(O)cc(C)n(Cc3ccco3)c2=O)CC1 (configuration not stated),inactive: 0.688%
12,Cc1ccc(NC(=O)CN(C)CC(=O)Nc2ccccc2Oc2ccccc2)cc1,inconclusive: -25.8%
13,C#CCNC(=O)/C=C/c1ccc(C)cc1,inactive: -4.71%
14,CCCCN1CCn2c(nc3cc(NC(=O)Cn4nc(C)c5ccccc5c4=O)ccc32)C1,inconclusive: -26.8%
15,Cc1ccc(SCCN2CCN(C)CC2)cc1,inactive: -0.874%
16,CCS(=O)(=O)N1CCc2cc(C(=O)CSc3nnc(C)n3C3CC3)ccc21,inconclusive: -26.5%
17,Cc1ccc(/C=C2\SC(=S)N(CCC(=O)NNC(=O)c3ccc(O)cc3)C2=O)cc1,inconclusive: -28.2%
18,CCN1CCN(CCOc2ccc(Br)cc2C)CC1,inconclusive: -29.7%
19,Cc1cc(C)c(NC(=O)CN(C)CC(=O)Nc2cccc(S(=O)(=O)N(C)c3ccccc3)c2)c(C)c1,inconclusive: -28.1%
20,COCCNC(=O)c1cc(-c2ccc3c(c2)OCCO3)nc2ccccc12,inconclusive: -27.5%
21,O=C(O)CN1C(=O)/C(=C\c2cccc(OCc3ccccc3F)c2)SC1=S,inconclusive: -27.5%
22,O=C(CSc1nc2cc(Cl)ccc2s1)NCCCc1ccccc1,inconclusive: -27.4%

row,Compound,activity change
1,COc1ccccc1-c1nc(SCc2cc(=O)n3c4c(sc3n2)CCCC4)n[nH]1,active: -32.8%
2,CCCCCn1c(COc2ccccc2Cl)n[nH]c1=S,inconclusive: -28%
3,CC(C)CN(C(=O)CN(C)C(=O)Cc1cccc2ccccc12)c1c(N)n(CC(C)C)c(=O)[nH]c1=O,inconclusive: -26.5%
4,CC(C(=O)Nc1ccc2c(c1)OCO2)N1CCN(C)CC1 (configuration not stated),inconclusive: -29.9%
5,C#CC[N+](C)(C)CCCCCCCCCC,inconclusive: -26.9%
6,N#Cc1c(SCC(=O)N2CCOCC2)nc(N2CCCCC2)c2c1CCCC2,inconclusive: -26.6%
7,Cc1ccc(C(=O)N/N=C/c2ccc([N+](=O)[O-])s2)cc1,active: -35%
8,Cc1ccc(S(=O)(=O)/N=C2/NC(=O)/C(=C/c3ccc(Br)o3)S2)cc1,inconclusive: -25.8%
9,CCCC(C)NC(=O)c1ccc2c(c1)NC(=O)CS2 (configuration not stated),inactive: -7.44%
10,O=[N+]([O-])c1cccc(CN2CCN(Cc3ccco3)CC2)c1,active: -43%
11,CCCCN(Cc1cc2cc(OC)ccc2[nH]c1=O)S(=O)(=O)c1ccccc1,inconclusive: -26.8%
12,Cc1[nH]n(-c2nc3ccccc3[nH]2)c(=O)c1C1OC(=O)c2ccccc21 (configuration not stated),inconclusive: -27.4%
13,COc1ccc(NC(=O)N(C)C[C@@H]2OCc3cn(nn3)CCCC(=O)N([C@@H](C)CO)C[C@H]2C)cc1,inconclusive: -26.2%
14,O=C(O)[C@H]1c2ccccc2C(=O)N(Cc2ccc(F)cc2)[C@H]1c1ccc(Cl)cc1,inactive: 8.78%
15,Clc1cccc(CN2CCN(c3ncccn3)CC2)c1Cl,inconclusive: -25.8%
16,Cn1c(=O)c2c(nc(Sc3ccccc3)n2Cc2ccc(Cl)cc2)n(C)c1=O,inconclusive: -26.8%
17,O=C(Nc1ccc(S(=O)(=O)N2CCCCC2)cc1)C1CCCN(C(=O)c2ccc(Cl)cc2)C1 (configuration not stated),inactive: 3.89%
18,COc1ccc(C2=NS(=O)(=O)N(C)C(C(=O)NC(C)C)=C2)cc1OC,inactive: 2.5%
19,CC(C)(C)OC(=O)[C@H](Cc1ccccc1)NC(=O)c1nc[nH]c1C(=O)N1CCN(C(=O)OC(C)(C)C)CC1,inactive: 0.274%
20,CC1CCCN(CCOCCSc2ccccc2)C1 (configuration not stated),inconclusive: -26.4%
21,CCOc1ccccc1CNC(=O)Cn1nc(C)c2c(C)n(-c3ccc(C)cc3)nc2c1=O,inconclusive: -27.9%
